Measurements: article PMC4336329 (PLoS ONE, 2015)
In all, about 310,000 compounds went through this assay and about 14,000 (4.5%) showed an effect of 50% or more. Effects have a minus sign here. Some of the results follow.

target: human ether-à-go-go-related gene (hERG) potassium channel (human, UniProt Q12809); test: primary screen, population patch clamp on CHO cells stably expressing hERG
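Note: peak tail current of the secondary pulse compared with the same well before compound.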

human ether-à-go-go-related gene (hERG) potassium channel, sequence (Q12809 whole entry, looked up): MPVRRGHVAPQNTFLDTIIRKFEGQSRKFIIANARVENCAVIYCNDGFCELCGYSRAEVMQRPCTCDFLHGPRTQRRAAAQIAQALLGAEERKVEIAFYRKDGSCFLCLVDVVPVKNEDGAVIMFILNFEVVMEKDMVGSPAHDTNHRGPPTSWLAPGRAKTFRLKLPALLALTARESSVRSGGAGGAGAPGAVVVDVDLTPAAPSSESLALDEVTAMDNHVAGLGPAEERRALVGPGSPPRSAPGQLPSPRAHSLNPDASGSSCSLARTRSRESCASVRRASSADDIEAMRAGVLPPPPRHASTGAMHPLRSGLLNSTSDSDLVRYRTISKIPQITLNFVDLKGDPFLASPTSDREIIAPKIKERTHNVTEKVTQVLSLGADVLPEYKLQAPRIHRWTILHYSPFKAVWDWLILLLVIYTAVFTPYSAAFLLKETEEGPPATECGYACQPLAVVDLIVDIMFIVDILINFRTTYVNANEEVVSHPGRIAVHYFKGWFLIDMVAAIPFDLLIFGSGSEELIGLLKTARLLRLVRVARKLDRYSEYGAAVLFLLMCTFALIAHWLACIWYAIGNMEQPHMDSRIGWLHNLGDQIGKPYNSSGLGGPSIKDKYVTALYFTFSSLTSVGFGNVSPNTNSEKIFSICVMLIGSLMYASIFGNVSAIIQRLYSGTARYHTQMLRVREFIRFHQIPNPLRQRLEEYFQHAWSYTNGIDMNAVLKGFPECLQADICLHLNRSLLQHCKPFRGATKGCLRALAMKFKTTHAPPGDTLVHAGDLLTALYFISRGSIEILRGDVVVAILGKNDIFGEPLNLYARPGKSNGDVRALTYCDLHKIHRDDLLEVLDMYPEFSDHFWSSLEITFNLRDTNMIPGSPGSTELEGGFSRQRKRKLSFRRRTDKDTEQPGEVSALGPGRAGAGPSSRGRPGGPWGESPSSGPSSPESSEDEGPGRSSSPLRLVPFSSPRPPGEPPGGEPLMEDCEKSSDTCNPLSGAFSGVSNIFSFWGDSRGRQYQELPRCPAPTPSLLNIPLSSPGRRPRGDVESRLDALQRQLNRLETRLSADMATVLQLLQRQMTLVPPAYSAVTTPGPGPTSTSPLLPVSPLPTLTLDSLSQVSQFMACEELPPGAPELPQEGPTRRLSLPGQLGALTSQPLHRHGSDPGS

| SMILES | hERG current change (%, negative = inhibition) at 10uM |
| --- | --- |
| CCn1c(=O)n(CC(=O)NCc2ccco2)c(=O)c2ccccc21 | 12.8% |
| COc1ccc(CC(=O)NC(CC(=O)O)c2ccc(OC)cc2)cc1 (stereo not drawn) | 4.28% |
| O=C(C1=C[C@H](c2ccc(C(F)(F)F)cc2)C[C@H](OCCCCO)O1)N1CCN(Cc2ccccc2)CC1 | -49.6% |
| CC(C)(C)NC(=O)c1cc(F)c(F)cc1Cl | 12.9% |
| FC(F)(F)c1ccc(CN2C[C@@H]3C(c4ccc(Cl)nc4)C4(c5cccnc5)CC3(C4)[C@H]2c2ccccc2)cc1 (stereo partly drawn) | -8.85% |
| O=C(CSc1ccccc1)N1CCCC(N2CCN(c3cccc(Cl)c3)CC2)C1 (stereo not drawn) | -54.1% |
| c1ccc2c(Nc3nncs3)c3ccccc3nc2c1 | 11.9% |
| COc1ccc(CCNC(=S)N2CCN(S(=O)(=O)c3cccc(F)c3)CC2)cc1 | -4.44% |
| O=C(NNC(=O)C1CC1)Nc1ccc(Cl)cc1 | 6.38% |
| O=C(CSc1ccc(S(=O)(=O)N2CCOCC2)cn1)Nc1ccc(OC(F)F)cc1 | -0.0257% |
| CCOCCOC(=O)C1=C(C)N(C)C(=O)NC1c1ccccc1F (stereo not drawn) | -2.15% |
| COc1ccc2[nH]cc(C3N4CC5(C)CN3CC(C)(C4)C5=O)c2c1 (stereo not drawn) | 6.1% |
| COc1ccc2c(-c3ccccc3)cc(SCC(=O)NC(N)=O)nc2c1 | 19.7% |
| S=C1NCN(Cc2ccccc2)CN1C1CCCCC1 | 20.6% |
| CCOC(=O)c1c(N2C(=O)Nc3ccccc3N2O)n[nH]c1-c1cccc(Cl)c1 | 7.1% |
| Cc1cc(C)cc(N(CC(=O)Nc2ccc(C)cc2Cl)S(=O)(=O)c2c(C)[nH]c(=O)[nH]c2=O)c1 | -7.63% |
| O=C(NC1CCCCC1)N(Cc1ccccc1)Cc1ccco1 | -11.9% |
| COC(=O)c1nn(-c2ccc(Cl)cc2)c(=O)cc1Sc1ccccn1 | -11.5% |
| O=c1nc(N/N=C/c2ccco2)cn[nH]1 | 29.1% |

| SMILES | hERG current change (%, negative = inhibition) at 10uM |
| --- | --- |
| COc1cccc(C(=O)N2CCN(S(=O)(=O)Cc3ccccc3)CC2)c1OC | -3.66% |
| CCCN(c1nc(C)cc(OC)n1)S(=O)(=O)c1ccccc1 | 0.318% |
| Cc1ccc(NC(=O)c2nc[nH]c2C(=O)N2CCC(C)CC2)cc1 | -0.182% |
| c1ccc2sc(Cc3nnc4n3CCCCC4)nc2c1 | -1.47% |
| Cn1nc(-c2ccc(OCC(=O)Nc3cccnc3)cc2)c2ccccc2c1=O | -11.7% |
| CCCCc1nc(SCC(=O)N2CCCCC2)c2c(=O)n(C)c(=O)n(C)c2n1 | -31.5% |
| Cc1ccc2c(c1)N(CCCC(=O)NCCC1=CCCCC1)C(=O)CO2 | -9.81% |
| COc1ccc(C(=O)Nc2ccc(S(=O)(=O)N3CCCCC3)cc2)cc1 | -8.51% |
| CCc1cccc2sc(NC(=O)C3CC3)nc12 | -17.8% |
| COCc1[nH]nc2c1C1(C(=O)Nc3ccc(F)cc31)C(C#N)=C(N)O2 (stereo not drawn) | -21.5% |
| CC1(c2nnc(Cc3ccccc3)o2)CC(c2cccc(Cl)c2)=NO1 (stereo not drawn) | 2.8% |
| COc1ccc(C(C(=O)Nc2ccc(C(C)C)cc2)N(Cc2ccco2)C(=O)CC2NC(=O)NC2=O)cc1 (stereo not drawn) | -13.4% |
| O=C(CSc1ccc(F)cc1)N1CCN(S(=O)(=O)c2ccccc2)CC1 | -8.51% |
| Clc1cccc(CN2CCN(c3ncccn3)CC2)c1Cl | -14.7% |
| S=c1[nH]nc(-c2ccncc2)n1Cc1ccccc1 | 8.95% |
| COc1ccccc1Nc1nc(N)nc(CSc2nccn2C)n1 | -3.65% |
| CS(=O)(=O)c1ccc(NS(=O)(=O)c2ccc(Cl)c(C(=O)NCc3ccco3)c2)cc1 | 9.88% |
| CC(C)N1CC(C(=O)Nc2ccc(F)c(Cl)c2)CC1=O (stereo not drawn) | 10.8% |
| COc1ccccc1OCC(=O)N/N=C1\CCc2ccccc21 | -14% |

| SMILES | hERG current change (%, negative = inhibition) at 10uM |
| --- | --- |
| COc1ccccc1C(=O)NNC(=O)c1ccc(NS(=O)(=O)c2cccs2)cc1 | 27.5% |
| Cc1cccc(C)c1NC(=O)CNCC(=O)Nc1c(C)cccc1C.Cl | 17% |
| O=c1cccc2c1c1cc[nH]c3ccc(=O)n2c31 | 18.2% |
| COc1cc(NC(=S)NCCN2CCOCC2)cc(OC)c1OC | 16.2% |
| CCOP(=O)(c1ccc(N(C)C)cc1)C(O)c1ccncc1 (stereo not drawn) | 10.8% |
| O=[N+]([O-])c1ccc2nc(-c3ccccc3[N+](=O)[O-])[nH]c2c1 | 20.2% |
| O=C(CN1CCC(C(=O)c2cccc(Cl)c2)CC1)Nc1ccc(C(=O)O)cc1 | 16% |
| CC(C)C1N(c2ccccc2)C(N)=C(C#N)C1(C#N)C#N (stereo not drawn) | -6.43% |
| O=C(NCc1ccccc1)NC1(C(=O)N2CCCC2)CCCCC1 | -1.81% |
| NC(=O)c1cc2ccccc2oc1=NCc1ccccc1 | 3.33% |
| O=C(Cc1cccs1)N1CCN(c2ccccn2)CC1 | 5.77% |
| O=[N+]([O-])c1cccc(N(CC2CO2)S(=O)(=O)c2ccccc2)c1 (stereo not drawn) | -5.4% |
| CCn1nc(C(=O)Nc2ccccc2C)c(Cl)c1Cl | 12.4% |
| COc1ccc(C(=O)Nc2cc(C)on2)cc1[N+](=O)[O-] | 14.4% |
| O=C(NCc1cccs1)c1cccc(N2CCCC2=O)c1 | 5.69% |
| Cc1cccc(NC(=O)c2c(C)cc(=O)oc2C)n1 | 7.37% |
| Nc1c(C(=O)c2ccccc2)sc2snc(SCC(=O)c3ccccc3)c12 | 23.4% |
| O=C(CSc1oc(-c2ccco2)nc1S(=O)(=O)c1ccc(Cl)cc1)NCC1CCCO1 (stereo not drawn) | -41.3% |
| NS(=O)(=O)c1ccc(-c2ccc(/C=C3\SC(=S)N(C4CCS(=O)(=O)C4)C3=O)o2)cc1 (stereo not drawn) | 10.8% |
